# The campaign covered roughly 310,000 compounds. About 14,000 (4.5%) showed an effect of 50% or more. The effect is printed as a negative number. The list shows a part of the results.
# Target: human ether-à-go-go-related gene (hERG) potassium channel (human, UniProt Q12809)
# Test: primary screen, population patch clamp on CHO cells stably expressing hERG
# 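Also: peak tail current of the secondary pulse compared with the same well before compound.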
# Chain of human ether-à-go-go-related gene (hERG) potassium channel (Q12809 whole entry, looked up): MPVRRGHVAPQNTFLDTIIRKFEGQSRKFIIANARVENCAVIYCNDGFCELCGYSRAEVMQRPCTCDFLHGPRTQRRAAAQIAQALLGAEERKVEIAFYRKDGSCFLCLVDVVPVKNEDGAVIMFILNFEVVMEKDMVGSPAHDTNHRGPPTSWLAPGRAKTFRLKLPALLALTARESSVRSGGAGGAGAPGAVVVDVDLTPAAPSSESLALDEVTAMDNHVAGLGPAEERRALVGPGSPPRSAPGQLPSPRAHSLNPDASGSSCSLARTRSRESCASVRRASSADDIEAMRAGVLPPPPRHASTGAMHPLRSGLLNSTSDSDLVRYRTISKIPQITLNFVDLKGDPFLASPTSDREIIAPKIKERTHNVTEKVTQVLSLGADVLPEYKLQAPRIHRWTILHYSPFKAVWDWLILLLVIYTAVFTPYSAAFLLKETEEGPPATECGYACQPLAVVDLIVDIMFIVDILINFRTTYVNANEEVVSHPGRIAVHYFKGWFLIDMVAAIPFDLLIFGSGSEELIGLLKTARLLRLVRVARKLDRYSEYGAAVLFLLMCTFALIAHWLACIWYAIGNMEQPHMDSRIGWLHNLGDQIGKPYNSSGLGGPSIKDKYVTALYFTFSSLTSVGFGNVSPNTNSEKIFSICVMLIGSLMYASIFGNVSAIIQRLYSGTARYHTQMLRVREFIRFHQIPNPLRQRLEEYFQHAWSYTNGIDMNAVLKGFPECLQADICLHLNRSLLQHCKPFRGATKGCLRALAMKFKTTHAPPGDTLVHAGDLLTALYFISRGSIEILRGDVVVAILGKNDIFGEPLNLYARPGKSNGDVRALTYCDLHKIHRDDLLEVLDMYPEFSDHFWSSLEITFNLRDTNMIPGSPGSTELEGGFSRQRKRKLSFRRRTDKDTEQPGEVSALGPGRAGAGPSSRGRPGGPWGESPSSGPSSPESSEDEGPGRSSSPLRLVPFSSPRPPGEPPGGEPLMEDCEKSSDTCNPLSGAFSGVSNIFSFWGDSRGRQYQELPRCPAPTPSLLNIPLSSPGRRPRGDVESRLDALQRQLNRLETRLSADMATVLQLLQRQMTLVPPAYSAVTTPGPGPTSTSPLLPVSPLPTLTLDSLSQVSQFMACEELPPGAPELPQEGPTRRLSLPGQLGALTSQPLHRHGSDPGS
row,Compound,"hERG current change (%, negative = inhibition) at 10uM"
1,CC(C)CN1CCN(CC#Cc2ccccc2)CC1CCO (stereo not shown),-3.92%
2,Cc1ccc(S(=O)(=O)Nc2nnc(C(C)(C)C)s2)cc1,8.56%
3,O=C(N/N=C/c1ccsc1)C1CC1,24.6%
4,COc1ccc(Cl)cc1S(=O)(=O)N1CCCC(C(=O)NCc2ccncc2)C1 (stereo not shown),-25.7%
5,Fc1cccc(/C=N/Nc2ncnc3nc[nH]c23)c1,11.1%
6,CN1C(=O)c2ccc(C(=O)NCc3ccccc3)cc2C1=O,7.61%
7,CC(=O)/C=C(\C)Nc1ccc(-c2cnc(-c3ccccc3)o2)cc1,-4.59%
8,COc1ccc(C2(CNC(=O)c3cccc([N+](=O)[O-])c3)CCOCC2)cc1OC,-10.8%
9,CCOc1ccc(C(=O)N2CCN(C(=O)c3ccco3)CC2)cc1OCC,-5.57%
10,Nc1nc(SCC(=O)N2CCc3ccccc32)[nH]c(=O)c1-c1ccccc1,-10.7%
11,CCOC(=O)c1c(C)n(C)c2cc(Br)c(C(=O)OC)cc12,-11.1%
12,O=C(CSc1ncn[nH]1)OCN1C(=O)c2ccccc2C1=O,5.07%
13,COc1ccccc1NC(=O)c1ccc(CN(c2cc(Cl)ccc2C)S(=O)(=O)c2ccccc2)cc1,-7.35%
14,COc1ccc2cc(C(c3nnnn3C3CCCCC3)N3CCCCCC3)c3nnnn3c2c1 (stereo not shown),4.6%
15,O=C(Nc1ccccc1N1CCCCC1)C1=COCCO1,-32.6%
16,COC(=O)C1=C(Nc2ccccc2NC(=O)c2ccccc2C(=O)O)CSC1,8.85%
17,CCN(CC)P(=O)(Nc1ccc(Br)cc1)c1c(C)nn(CCC#N)c1NC(=O)c1ccc(Cl)cc1 (stereo not shown),7.19%
18,CCNC(=S)NNC(=O)c1cc(-c2cccc(C)c2)nc2ccccc12,5.42%
19,COc1cccc(-c2cccc(NC(=O)C3CCN(CC4CCOC4)CC3)c2)c1 (stereo not shown),-53.2%
20,Cc1ccc2c(c1)N(C(=O)CCC(=O)NCc1cccc(Cl)c1)CC(C)O2 (stereo not shown),-45.9%
21,Cc1nc(C(=O)NCCO)cc2c1[nH]c1ccccc12,17.1%
22,CCOC(=O)C1CCN(Cc2nnnn2CCc2ccccc2)CC1,-4.94%
23,CCOc1ccc(NC(=O)CN2CCN(CC(=O)Nc3cccc(F)c3)CC2)cc1,-86.3%
24,CN(C)Cc1nnnn1-c1ccccc1,-26%
25,CCOc1ccc(C(=O)CC(C(=O)O)N2CCCCC2)cc1 (stereo not shown),7.67%

# From article PMC4336329 (PLoS ONE, 2015)
